Experimental data reported in PubChem BioAssay AID1240 (Sanford-Burnham Center for Chemical Genomics, 2008).
In all, about 50,000 compounds went through this assay and about 800 (1.6%) showed an effect of 50% or more. Some of the results follow.

target: Bcl-2-like protein 10 (Homo sapiens) (UniProt Q9HD36); experiment: TR3 peptide-Bcl-B binding displacers, biochemical primary FP assay, phenotype converters (AID 1240); conditions: GST-Bcl-B / FITC-TR3 peptide fluorescence polarization; stronger effect = higher value; compound at 3.75 mg/L;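 further: 0% = Bcl-B with tracer peptide and DMSO and 100% = tracer peptide lacking Bcl-B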
Chain of UniProt Q9HD36 (Q9HD36 whole entry, looked up): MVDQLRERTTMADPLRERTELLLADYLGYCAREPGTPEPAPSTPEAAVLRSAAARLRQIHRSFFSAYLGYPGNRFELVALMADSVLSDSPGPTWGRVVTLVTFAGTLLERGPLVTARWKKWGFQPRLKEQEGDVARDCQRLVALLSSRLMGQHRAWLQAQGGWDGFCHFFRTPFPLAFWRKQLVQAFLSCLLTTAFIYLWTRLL

Compound	displacement [%]
CCC12C(=O)C(CC)(C(c3ccccc3)=C1c1ccccc1)C1C(=O)N(c3ccccc3[N+](=O)[O-])C(=O)C12 (stereo unspecified)	2
O=C(Nc1ccc(Cl)c(-c2nc3ccccc3[nH]2)c1)c1ccc(I)o1	19.4
COc1ccc(S(=O)(=O)N(CC(N)=O)c2ccc(C)cc2)cc1OC	-0.7
COc1ccc(NC(c2ccccc2)c2ccncc2)cc1 (stereo unspecified)	-2.5
O=C(O)C1C2C=CC(O2)C1C(=O)Nc1cc(Cl)cc(Cl)c1 (stereo unspecified)	3.7
Cc1ccc(OCC(=O)NC(C)c2ccccc2)cc1C (stereo unspecified)	89.2
COc1ccc(C(=O)NCCc2cccc(Cl)c2)cc1OC	4
COc1ccc(N2C(=O)NC(=O)/C(=C/c3cc(Br)c(OCCOc4ccccc4OC)c(OC)c3)C2=O)cc1	1.9
CCOC(=O)c1ccccc1NC(=O)c1cncc(Br)c1	9.2
Cc1ccc(N2C(=O)/C(=C/c3ccc(F)cc3)SC2=S)cc1C	16.9
Cc1cccnc1NC(=O)Nc1ccc(Cl)cc1	-2.7
C=CCc1cccc2cc(C(=O)NC(C)c3ccccc3)c(=O)oc12 (stereo unspecified)	-8.5
O=C(C(=O)N1CCOCC1)c1c[nH]c2ccccc12	-1.6
CCOC(=O)c1ccccc1NC(=O)c1ccc(N(Cc2ccc(Cl)cc2)S(C)(=O)=O)cc1	12.1
Cc1ccc(NC(=O)COc2cccc(C)c2C)cc1Cl	5
COc1ccc(N(CC(=O)NCc2ccccc2)S(=O)(=O)c2ccc(C)cc2)cc1	-1.4
Cc1ccc(NC(=O)C(=O)NCCc2ccccc2)cc1C	13.2
COc1cc(/C=C2/NC(=S)NC2=O)cc(Cl)c1OC(C)C	-10.1
CC1=C(C(=O)Nc2ccc(Br)cc2)C(c2cccs2)NC(=S)N1 (stereo unspecified)	8
Cc1sc(NC(=O)c2ccc(F)cc2)c(C(N)=O)c1C	-4.9
COc1ccc(OC)c(C2/C(=C(/O)c3ccccc3)C(=O)C(=O)N2c2cccc([N+](=O)[O-])c2)c1 (stereo unspecified)	-0.1
CC1CCN(c2cc(N3CCC(C)CC3)c([N+](=O)[O-])cc2/C=C(\C#N)c2nn(-c3ccccc3)c(N)c2C#N)CC1	8.4
Cc1ccc(C(=O)Nc2nn[nH]n2)cc1	3.4

Compound	displacement [%]
NC1=NC(=O)C(CC(=O)Nc2ccc(C(=O)O)cc2)S1 (stereo unspecified)	-10.5
O=[N+]([O-])c1ccccc1-c1nc(-c2cccnc2)no1	-1
Cc1cc(-c2ccccc2)nc2cc(-c3ccc(Cl)cc3)nn12	-5.4
Cc1cc(C)nc(SCCN2CCCCC2)n1	-15.1
COc1cccc(OCC(=O)NNC(=O)c2ccccc2C)c1	-9
Cc1ccc(NC(=O)C(=O)NCCN2CCN(S(=O)(=O)c3ccc([N+](=O)[O-])cc3)CC2)cc1	15
Ic1ccccc1NCn1nnc2ccccc21	-12.8
COc1cc(NC(=O)COc2cccc(C)c2)c(C(=O)O)cc1OC	11.1
C/C(=N\OC(=O)Nc1ccccc1)c1ccccn1	-8.2
OC(CNCC1(c2ccccc2)CCCC1)COc1ccccc1 (stereo unspecified)	-1.3
C=CCNC(=O)c1ccc(-c2ccc(Cl)cc2Cl)o1	13.1
CCCCNCCOc1cc(C)c(Cl)c(C)c1	2.6
CC(C)NS(=O)(=O)c1ccc(Br)cc1	-7.4
O=C1NC(=O)N(c2ccc(Cl)cc2)C(=O)/C1=C/c1ccc(O)c(Br)c1	-8.4
CCOc1cc(/C=C2\SC(=S)N(CC(=O)OC)C2=O)ccc1O	122
Cc1ccc2nc(-c3ccc(NC(=O)c4ccc5c(c4)OCCO5)cc3)sc2c1	73.2
Cc1ccc(NC(=S)NC(=O)c2sc3ccccc3c2Cl)cc1	6
COc1cc(Br)cc(/C=N/NC(=O)COc2cccc(Cl)c2)c1O	30.2
COc1ccc(NC(=O)C(=O)NCCCN2CCOCC2)cc1	-6.5
CC1(C)COC(=O)/C1=N/Nc1ccc([N+](=O)[O-])cc1	-0.2
O=C(NNC(=O)c1ccc(Cl)c([N+](=O)[O-])c1)c1cccc(Br)c1	-11.3
CC(=O)c1c(C(C)=O)c(C)n(-c2ccccc2N)c1C	1.8
CCOc1ccccc1NC(=O)CSc1ccccn1	-10.7

Compound	displacement [%]
COc1cc2ccccc2cc1C(=O)Nc1ccc(Cc2ccncc2)cc1	-61.9
O=[N+]([O-])c1cccc(-c2nnc(-c3cccc(F)c3)o2)c1	13.1
COc1ccc(C2CC(C(F)(F)F)n3nc(C(=O)Nc4ccc(F)cc4F)c(Cl)c3N2)cc1OC (stereo unspecified)	-1.2
COc1ccc(C2SCC(=O)N2c2c(C)n(C)n(-c3ccccc3)c2=O)cc1OC (stereo unspecified)	-10.3
Cc1ccc2oc(-c3ccc(NC(=O)COc4ccccc4)cc3O)nc2c1	-22
Cc1ccc(C=Nc2ccc(I)cc2)o1	-9.1
Cc1ccc(S(=O)(=O)/N=C2\C=CC(=O)C(Br)=C2)cc1	-3.5
O=C(Nc1ccccc1)Nc1ncccn1	13
CCNC(=S)NNC(=O)CCn1c2ccccc2c2ccccc21	-12.5
COC(=O)Nc1ccc(S(=O)(=O)N2CCN(c3ccccc3OC)CC2)cc1	-11.1
CCC12CN3CC(CC)(CN(C1)C3c1ccc(Br)cc1)C2=O (stereo unspecified)	10.1
Cc1ccc(NC2=C(Cl)C(=O)N(c3ccccc3Cl)C2=O)c(C)c1	1.9
CCOc1ccc(N2C(=O)CC(N(Cc3ccco3)C(=O)c3ccc(Cl)cc3)C2=O)cc1 (stereo unspecified)	-8
COc1ccc(C2CC(=O)C3=C(C2)Nc2ccccc2NC3c2ccc(C)c([N+](=O)[O-])c2)cc1OC (stereo unspecified)	-5.1
Cc1nc2ccc(Cl)cn2c1C(=O)N/N=C\c1ccc(C(=O)O)cc1	-3.1
O=C(CN1C(=O)/C(=C\c2ccccc2F)SC1=S)Nc1nc2ccccc2s1	7.3
CN(C)c1ccc(C(O)C(C)(O)c2nc3ccccc3n2C)cc1 (stereo unspecified)	6.1
O=C1CN(C(=O)CNC(=O)c2ccccc2)CC(=O)N1	-3
CCCCS(=O)CC(O)COCC (stereo unspecified)	-14
COc1cccc(OCCCCOc2ccccc2OC)c1	8.4
COc1ccc(NC(=O)c2cc3cccc(OC)c3oc2=O)c(OC)c1	1.8
Cc1cc(C)cc(OCC(=O)N2CCN(c3ccc([N+](=O)[O-])cc3)CC2)c1	-3.5
CC(C)(C)c1cc(C(C#N)C#N)c(C(C)(C)C)c(O)c1O	33.5

Compound	displacement [%]
COc1ccc(NC(=O)/C=C/c2ccc(C)o2)cc1	14.7
CC1=C(C(=O)OCC2CCCO2)C(c2ccccc2)NC(=O)N1 (stereo unspecified)	2.5
Cc1cc(NC(=O)CSc2ccccn2)no1	13.8
Clc1ccc(C=NN2CCN(Cc3ccccc3)CC2)cc1Cl	-6.7
Nc1ccc(-c2nc3ccc(-c4nc5ccccc5o4)cc3[nH]2)cc1	0.8
C=C(C)CNC(=S)Nc1sc2c(c1C(=O)OCC)CCCC2	1.6
O=C(COc1ccc(Cl)cc1Cl)Nc1ccc(NC(=O)c2ccco2)cc1	-2.4
COc1cc(C2NC(=O)c3c(sc4c3CCN(C)C4)N2)cc(OC)c1OC (stereo unspecified)	3.2
O=C(Cc1ccc([N+](=O)[O-])cc1)NCc1ccccn1	14.1
CC1=NN(C(=O)C(C)C)C(C)(NNC(=O)C(C)C)C1 (stereo unspecified)	2.9
O=C(N/N=C/c1ccncc1)c1[nH]c2ccc([N+](=O)[O-])cc2c1-c1ccccc1	-4.2
CCC(=O)N1N=C(c2cccc([N+](=O)[O-])c2)CC1c1ccc(OC)cc1 (stereo unspecified)	4.5
O=C(c1ccc(I)cc1)N1CCN(c2ccc([N+](=O)[O-])cc2)CC1	8.9
Cc1cc(Cl)ccc1OC(C)C(=O)NCCc1ccccc1 (stereo unspecified)	-3
NC(=O)CSc1nc2ccccc2n1Cc1ccccc1	-0.9
Cc1ccc(-c2cc(-c3ccccc3)nc(N/N=C/c3ccc(O)cc3O)n2)cc1	-9.3
Cc1ccc(N2CCOCC2)c2c1C(=O)c1ccccc1C2=O	-2.3
Cc1ccc(N2NC(=O)/C(=C/c3ccc(O)c([N+](=O)[O-])c3)C2=O)cc1	0.3
Cn1cccc1CN1CCN(Cc2ccccc2)CC1	26.1
O=C(NCCOc1ccccc1Cl)c1ccc2c3c(cccc13)CC2	-9.9
CC(Sc1nc2ccc(Br)cc2c(=O)n1-c1ccccc1)c1ccccc1 (stereo unspecified)	5.1
Cc1oc2c(CN(CC(C)C)CC(C)C)c(O)ccc2c(=O)c1-c1nc2ccccc2s1	12.7
COc1ccc(-n2nc3cc(C)c(NC(=O)C(c4ccccc4)c4ccccc4)cc3n2)cc1	0.6

Compound	displacement [%]
O=C1CC(c2cc([N+](=O)[O-])ccc2Cl)c2cc(Br)c3ccccc3c2N1 (stereo unspecified)	-9.3
CC(C)(C)NC(=O)C(=O)NN=C1CCCC1	0.3
C=CCn1c(SCC(=O)Nc2ccccc2OC)nc(O)c(Cc2ccccc2)c1=O	-4.3
O=C(/C=C/c1ccccc1)NC(=S)Nc1ccc(N2CCOCC2)cc1	11.2
CCN(CC)c1ccc(NC(=O)c2ccc(I)cc2)cc1	1.7
COc1ccccc1NC(=O)CC1S/C(=N\N=C(/C)c2ccc(Cl)cc2)NC1=O (stereo unspecified)	-0.6
CCOc1ccc2nc(SCC(=O)c3ccccc3)sc2c1	-11.3
COc1c(Br)cc(/C=C2\SC(=S)NC2=O)cc1Br	-26.2
Cc1ccccc1C(=O)Nc1cccc(-c2nnc(-c3ccccc3)o2)c1	3.2
Cc1ccc(CN2C(=O)C(C)(C)Nc3ccccc32)c(C)c1	-1
Cc1cc(N2CCN(c3ccccc3)CC2)nc2ccccc12	-0.9
Cc1ccc2oc(-c3cc(NC(=O)c4cccs4)ccc3O)nc2c1	5.7
CC1CSc2nc3sc4c(c3c(=O)n21)CCCC4 (stereo unspecified)	-12.9
O=C(NCCCO)C1CC(=O)N(c2ccccc2)C1 (stereo unspecified)	9.7
O=C(Nc1ccc(Cl)c2c1C(=O)c1ccccc1C2=O)c1ccc([N+](=O)[O-])cc1Cl	-7.9
O=C(O)c1c(F)c(F)c(N2CCOCC2)c(F)c1F	-5.1
O=[N+]([O-])c1ccc(-c2nnc(-c3ccco3)o2)c(Cl)c1	14
N#C/C(=C(/O)c1ccco1)c1nc2ccccc2[nH]1	-7.2
O=C1c2ccc(-c3nc4ccccc4o3)cc2C(=O)N1c1cccc(-c2nc3ccccc3o2)c1	-1.2
